# Measurements taken from PubChem BioAssay AID1508642 (National Center for Advancing Translational Sciences (NCATS), 2021).
# Out of some 43,000 compounds screened, about 200 (0.47%) were called active. Another 12% or so got no clear call; they are omitted. The call rests on the fitted dose curve; in most records, active means well fitted cell-killing curve with a large enough effect; inconclusive means small, poorly fitted or top-dose-only effect, or effect the other way; inactive means flat fitted curve, though single readings scatter. The list shows a part of the results.
# Assay: Cell viability qHTS assay in S16 Pmp22-F2sN cells; further: nearly all actives have a fitted effect of over 65% in size
# Settings: S16 Pmp22-F2sN Schwann cells (luciferase reporters placed in the Pmp22 gene) viability, CellTiter-Glo, 24 h; series mostly up to 57.5 µM; activity change, negative = cytotoxicity: at the top concentration
# From the text: Assay Provider: Jim Inglese Ph.D. National Center for Advancing Translational Science, National Institutes of Health, Rockville, MD CMT is a heterogeneous group of neurological disorders that affect approximately 1 in 2,500 people. In particular, the most common form of CMT, CMT1A is genetically linked to the duplication of the PMP22 gene which leads to Schwann cell overexpression, thus manifesting itself as a typical case of dose-sensitive diseases. To identify small molecule compounds that can mediate the expression of PMP22 we developed a phenotypic assay screening strategy by utilizing genome editing techniques to construct Schwann cell lines containing novel reporter technology to monitor the transcriptional or translational regulation of PMP22. For high sensitivity we use a bioluminescent reporter system embedded in the 3' UTR of the PMP22 gene (S16(c9) Pmp22-F2sN) to identify compounds that inhibit gene expression. […] We can further discriminate the effect of all transcriptionally active molecules on PMP22 translation or stability with an assay that incorporates a short NLuc peptide (HiBiT) at the C-terminus of expressed PMP22 (S16(f8) PMP22-HiBiT) allowing alpha complementation and luminescence detection of membrane-associated PMP22 protein. These assays were screened against the NCATS Sytravon Library Collection. Miniaturization of these assays to 1536-well plate format for quantitative high throughput screening (qHTS) yielded rich data sets immediately from the qHTS assay (S16(c9) Pmp22-F2sN), when compared with data from a cell viability assay (Cell TiterGlo) to identify compounds that decreased the output signals through cellular toxicity to streamline the selection process of actives for subsequent characterization using the HiBiT assay (S16(f8) PMP22-HiBiT).
# Cell viability assay in S16 Pmp22-F2sN cells PROTOCOL TABLE (format as described by Inglese J, Shamu CE and Guy RK. 2007) SEQUENCE No. (e.g., 1, 2, 3, etc.); […] (e.g., Cells, Incubation, Reagent, etc.); VALUE and DESCRIPTION. 1. Cells. Add 500-1,000 cells in 4 uL in growth media (DMEM High Glucose, No Phenol Red media + 10% heat-inactivated FBS + 1% Pen/Strep supplemented media) per well into Greiner 1536-well white/solid bottom high base, TC-treated plates. 2. Compounds. Library compounds and controls added at 23nL per well, transferred by Pin Tool. 3. Incubation. Incubate plates at 37C, 5% CO2, 95% RH for 24 h. 4. Reagent. Add 3uL CellTiter-Glo per well of Greiner 1536-well plates. 5. Incubation. Incubate plates at room temperature for 15 min., protect from light. 6. Detector. FLuc luminescence measured using CCD-based camera (Viewlux). NOTES (numbers refer to Sequence numbers above; values are from representative experiments) 6. Luminescence Read: Clear filter; Exposure = 1 sec, Gain = High, Speed = Slow, Binning = 2X REFERENCES: 1. Inglese J, Shamu CE and Guy RK, Reporting data from high throughput screening of small molecule libraries, Nature Chemical Biology, 2007, 3(8): 438-441. doi.org/10.1038/nchembio0807-438 2. Yasgar A, Shinn P, Jadhav A, Auld DS, Michael S, Zheng W, Austin CP, Inglese J and Simeonov A, Compound Management for Quantitative High-Throughput Screening. J. Assoc. Lab. Auto., 2008, 13: 79-89. doi: 10.1016/j.jala.2007.12.004
# On the % scale 0 is the no-effect control and ±100 the full control effect.
row,Compound,"activity change, negative = cytotoxicity"
1,COc1ccc(NC(=O)C(C)N2Cc3ccccc3C2=O)cc1OC (centres undefined),inactive: 1.67%
2,Cc1ccc2c(c1)-c1c(cnc3cc(-c4ccc(Cl)cc4)nn13)CO2,inactive: -1.64%
3,Cc1ccc2onc(CNC(=O)N3CCN(c4cc(Cl)ccc4C)CC3)c2c1,inactive: -5.29%
4,Cc1ccc(CCNC(=O)c2sc3nc4n(c(=O)c3c2C)CCCC4)cc1,inactive: -1.33%
5,COc1ccccc1CNC(=O)c1ccc2c(c1)nc(C)n2-c1cccc(C)c1,inactive: -4.77%
6,CC(C)OC(=O)c1ccc(NC(=O)CSc2nc(-c3cccs3)cc(C(F)(F)F)n2)cc1,inactive: 9.87%
7,Cc1ccc(COC(=O)c2[nH]c3c(c2C)C(=O)CC(c2ccc(Cl)cc2)C3)cc1 (centres undefined),inactive: -5.48%
8,CC(C)CC(=O)n1nc(-c2ccco2)nc1NCc1ccc(Cl)cc1,inactive: 10.1%
9,Cc1ccc2c(c1)c(=O)c1ccccc1n2CCCC(=O)Nc1ccc(C)c(C)c1,inactive: -3.84%
10,Cc1cccc(CN2C(=O)c3ccccc3S(=O)(=O)c3ccc(C(=O)OCC4CCCO4)cc32)c1 (centres undefined),inactive: 14.7%
11,CCc1ccc(CNC(=O)C2COc3ccccc3C2)cc1 (centres undefined),inactive: 12.3%
12,COc1cc(NS(=O)(=O)c2cc3[nH]c(=O)[nH]c3cc2C)cc(OC)c1OC,inactive: 10.4%
13,CCOC(=O)c1cc(S(=O)(=O)N2CCN(c3ccccc3OC)CC2)[nH]n1,inactive: -14.9%
14,Cc1ccc(N2CC(NC(=O)C3CCCCC3)CC2=O)cc1 (centres undefined),inactive: 2.63%
15,COc1ccc(NC(=O)CSCc2cc(=O)c3cc(Cl)ccc3[nH]2)cc1,inactive: 6.68%
16,CCn1c(CNC(=O)c2ccc(OC)cc2)nnc1SCC(=O)Nc1ccc(F)cc1,inactive: 14%
17,CCc1ccc(C(=O)c2cn(CC(=O)Nc3ccc(F)cc3)c3ccc(F)cc3c2=O)cc1,inactive: 0.158%
18,CCOc1ccc(C2CC(=O)Nc3c2c(=O)[nH]c2ncnn32)cc1 (centres undefined),inactive: -0.11%
19,Cc1cccc(C(=O)Nc2cc(-c3ccccc3F)nn2-c2ccccc2)c1,inactive: -20.1%
20,COc1cccc(-c2nc(CS(=O)(=O)CC(=O)Nc3ccc(C)c(Cl)c3)c(C)o2)c1,inactive: -3.3%
21,COc1ccc(CCNC(=O)Cc2ccc(NC(=O)N3CCSc4ncccc43)cc2)cc1OC,inactive: 5.4%
22,Cc1cccc(NC(=O)c2cc3c([nH]c2=O)CC(c2ccccc2)CC3=O)c1 (centres undefined),inactive: 1.99%
23,O=C(Cn1c(=O)n(Cc2ccc(F)cc2)c(=O)c2sc3ccccc3c21)Nc1ccc(F)cc1F,inactive: 0.029%
24,COc1cc(C(=O)NCc2nc(-c3ccc(Cl)cc3)no2)cc(OC)c1OC,inactive: 11.6%
25,COC(=O)CCNC(=O)N1CCN(c2nnc(C)c3c(C)n(-c4ccccc4)nc23)CC1,inactive: 1.28%

row,Compound,"activity change, negative = cytotoxicity"
1,COc1cccc(CNC(=O)Cn2cccc2C(=O)c2ccccc2)c1,inactive: 12%
2,COc1ccc(C(=O)N2CCN(c3nc4c(OC)cccc4s3)CC2)cc1OC,inactive: -27.1%
3,CCCn1c(=N)c(C(=O)NC2CCCCC2)cc2c(=O)n3cc(C)ccc3nc21,inactive: 13.2%
4,CCOC(=O)c1cc(-c2ccccc2)n(-c2cccc(C(=O)NC(C)(C)C)c2)c1C,inactive: -28.8%
5,CCOc1ccc(S(=O)(=O)NCc2cccn2Cc2cccc(C)c2)cc1,inactive: 5.45%
6,CC(C)COc1ccc(C(=O)N(Cc2cccc(F)c2)C2CCS(=O)(=O)C2)cc1 (centres undefined),inactive: 6.05%
7,CCOC(=O)c1cnc2ccc(OCC)cc2c1NCCc1ccc(OC)c(OC)c1,inactive: 12.8%
8,CCN1CCc2c(sc(-n3cccc3)c2C(CCC(C)C)NC(=O)NCCC(=O)OC)C1 (centres undefined),inactive: 20.8%
9,CCc1cccc(C)c1NC(=O)C(NS(=O)(=O)c1ccc2c(c1)CCC(=O)N2)c1ccccc1 (centres undefined),inactive: -3.28%
10,CCCn1c2ccccc2c2cnn(CC(=O)NCCCOC(C)C)c(=O)c21,inactive: 11.2%
11,O=C(Nc1ccc(F)cc1)Nc1nnc(SCC(=O)N2CCCCC2)s1,inactive: -17.3%
12,Cc1cccc(CNC(=O)CN2CC(C)Sc3ccccc32)c1 (centres undefined),inactive: 8.32%
13,CC(=O)Nc1ccc(NC(=O)CN2C(=O)CCc3cc(S(=O)(=O)N4CCCCC4)ccc32)cc1,inactive: -14.4%
14,COc1ccc(C)cc1NS(=O)(=O)c1cc(Br)cc2c1N(C(C)=O)C(C)C2 (centres undefined),inactive: 6.35%
15,Cc1c(C(=O)N(Cc2cccc(Cl)c2)Cc2ccco2)oc2ccccc12,inactive: 5.57%
16,Cc1c(Cl)cccc1-n1nnc(-c2nc(-c3ccc4c(c3)OCO4)no2)c1C,inactive: -0.549%
17,COc1cccc(NC2=CC(c3ccc(C(C)C)cc3)N(c3cccc(OC)c3)C2=O)c1 (centres undefined),inactive: -15.2%
18,COc1ccc(NC(=O)CCS(=O)(=O)c2cc3c4c(c2)CCN4C(=O)CC3)cc1OC,inactive: -11.1%
19,CCC(C(=O)Nc1ccc(F)cc1F)n1nc(-c2ccccc2)c2c(c1=O)CCCC2 (centres undefined),inactive: -11.4%
20,COc1cccc(CNC(=O)CSc2nnc(C)c3c(C)n(-c4ccccc4)nc23)c1,inactive: -2.72%
21,O=C(c1cccn1-c1nnc(N2CCCC2)s1)N1CCN(c2ccc(F)cc2)CC1,inactive: -4.54%
22,Cc1cccc(OCC(=O)NCc2ccc3c(c2)CCN3C(=O)c2ccc(Cl)cc2)c1,inactive: -3.78%
23,O=C(c1ccc(F)cc1)N1CCN(CCc2ccncc2)CC1,inactive: 5.91%
24,COc1ccc(-c2nnc(SCC(=O)Nc3ccc(C)c(Cl)c3)nc2-c2ccc(OC)c(OC)c2)cc1OC,inactive: 1.65%
